Experimental findings from the antibiotic and cytotoxicity screens of Wong et al. (2023) are described below.

One test concerns HSkMC. Nature of the test: cytotoxicity call (relative viability < 0.9). The note with it: 10 µM.
The test system of a further test is HepG2. Nature of the test: cytotoxicity call (relative viability < 0.9). The note with it: 10 µM.
For another test, the system named is S. aureus RN4220. Nature of the test: growth inhibition call (relative growth <= 0.2). The note with it: 50 µM.

The list shows a part of the results.

For `C[C@H](CO)N1C[C@H](C)[C@H](CN(C)S(=O)(=O)c2cn(C)cn2)Oc2ncc(-c3cc4ccccc4o3)cc2C1=O`, the cytotoxicity call in the test with HSkMC and in the test with HepG2 was “inactive” each time. Also, in the test with S. aureus RN4220, the growth inhibition call is “inactive”.
Regarding `Cc1ccc(S(=O)(=O)N(C)C[C@H]2Oc3c(NC(=O)C4CC4)cccc3C(=O)N([C@@H](C)CO)C[C@H]2C)cc1`, the cytotoxicity call in the test with HSkMC and with HepG2 was “inactive” in each case. Also, the growth inhibition call in the test on S. aureus RN4220 is “inactive”.
On to `COc1ccc(S(=O)(=O)Nc2ccc3c(c2)C(=O)N([C@@H](C)CO)C[C@@H](C)[C@@H](CN(C)C(=O)Nc2ccc4c(c2)OCO4)OCCCC[C@@H](C)O3)cc1`, for which the cytotoxicity call with HSkMC is “inactive”. In the test with HepG2, the cytotoxicity call was “active”. Besides, the growth inhibition call with S. aureus RN4220 is “inactive”.
As to `Cc1ccc(S(=O)(=O)Nc2cccc3c2O[C@@H](CN(C)S(=O)(=O)c2cccs2)[C@H](C)CN([C@H](C)CO)C3=O)cc1`, the cytotoxicity call in the test with HSkMC and with HepG2 was “inactive” each time. In addition, the growth inhibition call in the test with S. aureus RN4220 was “inactive”.
For the compound `O=C1CC[NH][Zn][O]C(=O)[C@H](Cc2cnc[nH]2)N1`, the cytotoxicity call in the test on HSkMC and in the test on HepG2 was “inactive” each time. In the test on S. aureus RN4220, the growth inhibition call is “inactive”.
Turning to `C[C@H](CO)N1C[C@H](C)[C@@H](CN(C)Cc2ccc(Oc3ccccc3)cc2)Oc2c(NS(=O)(=O)c3cccs3)cccc2C1=O`, the cytotoxicity call with HSkMC and with HepG2 was “inactive” throughout. The growth inhibition call with S. aureus RN4220 was “inactive”.
As to `COc1ccccc1S(=O)(=O)N1C[C@@H](O)COC[C@@H]2O[C@H](CC(=O)O)CC[C@H]21`, the cytotoxicity call with HSkMC and in the test with HepG2 was “inactive” throughout. Moreover, the growth inhibition call with S. aureus RN4220 was “inactive”.
On to `Clc1cccc(Cl)c1CSCc1cc2ccccc2o1`, for which the cytotoxicity call with HSkMC and in the test on HepG2 was “inactive” in each case. In the test with S. aureus RN4220, the growth inhibition call was “inactive”.
With `CNC(=O)C[C@@H]1CC[C@@H]2[C@H](COC[C@H](O)CN2C(=O)c2ccccn2)O1`, the cytotoxicity call with HSkMC and in the test on HepG2 was “inactive” each time. The growth inhibition call in the test on S. aureus RN4220 is “inactive”.
With `CN1CCN(C(=O)C[C@H]2CC[C@H]3[C@@H](COC[C@H](O)CN3CC3CCCC3)O2)CC1`, the cytotoxicity call with HSkMC and with HepG2 was “inactive” each time. Further, the growth inhibition call with S. aureus RN4220 is “inactive”.
For the compound `COc1ccc2c3c([nH]c2c1)[C@H](CO)N(C[C@]13CCN(CC1)CC1CCCC1)C(=O)Nc1cccc(c1)F`, in the test with HSkMC, the cytotoxicity call was “inactive”. In addition, in the test with HepG2, the cytotoxicity call was “active”. Moreover, the growth inhibition call in the test with S. aureus RN4220 was “inactive”.
`COc1ccc(S(=O)(=O)Nc2ccc3c(c2)CC(=O)N([C@@H](C)CO)C[C@@H](C)[C@@H](CN(C)S(=O)(=O)c2ccc(F)cc2)O3)cc1`: the cytotoxicity call in the test with HSkMC and with HepG2 was “inactive” in each case. The growth inhibition call in the test with S. aureus RN4220 was “inactive”.
Turning to `C[C@@H]1CCCCO[C@H](CN(C)Cc2ccccc2)[C@@H](C)CN([C@H](C)CO)C(=O)c2cc(NC(=O)Nc3ccc4c(c3)OCO4)ccc2O1`, the cytotoxicity call in the test with HSkMC and in the test on HepG2 was “inactive” in each case. The growth inhibition call in the test on S. aureus RN4220 was “inactive”.
As for `C[C@@H]1CN([C@H](C)CO)C(=O)c2cc(NS(=O)(=O)c3ccc(Cl)cc3)ccc2O[C@@H](C)CCCCO[C@@H]1CN(C)S(=O)(=O)c1ccccc1`, the cytotoxicity call in the test on HSkMC and with HepG2 was “inactive” each time. Besides, the growth inhibition call with S. aureus RN4220 was “inactive”.
With `C[C@H](CO)N1C[C@H](C)[C@H](CN(C)C(=O)Nc2ccc(F)cc2)OCCCC[C@H](C)Oc2ccc(NC(=O)NC3CCCCC3)cc2C1=O`, the cytotoxicity call in the test on HSkMC and with HepG2 was “inactive” in each case. Moreover, the growth inhibition call in the test with S. aureus RN4220 was “inactive”.
With `Cc1noc(C)c1NC(=O)Nc1ccc2c(c1)C(=O)N([C@@H](C)CO)C[C@H](C)[C@H](CN(C)Cc1ccc(C(=O)Nc3ccccc3N)cc1)O2`, the cytotoxicity call in the test with HSkMC and with HepG2 was “inactive” in each case. The growth inhibition call with S. aureus RN4220 is “inactive”.
Consider `CCCC(=O)Nc1ccc2c(c1)C(=O)N(C)C[C@@H](OC)[C@H](C)CN(S(=O)(=O)c1cn(C)cn1)[C@@H](C)CO2`, for which the cytotoxicity call with HSkMC and in the test on HepG2 was “inactive” each time. In addition, in the test on S. aureus RN4220, the growth inhibition call is “inactive”.
With `C[C@@H]1CN([C@H](C)CO)C(=O)Cc2cc(NC(=O)CCN3CCOCC3)ccc2O[C@H]1CN(C)S(=O)(=O)c1ccc(Cl)cc1`, the cytotoxicity call in the test with HSkMC and in the test on HepG2 was “inactive” in each case. Further, the growth inhibition call in the test with S. aureus RN4220 was “inactive”.
`C[C@@H]1CN([C@@H](C)CO)C(=O)Cc2cc(NC(=O)Cc3cn(C)c4ccccc34)ccc2O[C@H]1CN(C)S(C)(=O)=O`: the cytotoxicity call with HSkMC and with HepG2 was “inactive” throughout. Besides, the growth inhibition call in the test on S. aureus RN4220 is “inactive”.
With `C[C@@H]1CN([C@H](C)CO)C(=O)c2cccc(NC(=O)Nc3ccc(F)cc3)c2O[C@@H]1CN(C)C(=O)Nc1ccc(C(F)(F)F)cc1`, the cytotoxicity call with HSkMC and with HepG2 was “inactive” each time. Moreover, the growth inhibition call in the test on S. aureus RN4220 is “inactive”.
Regarding `C[C@H]1CN([C@@H](C)CO)C(=O)c2cc(NS(=O)(=O)c3cn(C)cn3)ccc2O[C@H]1CN(C)Cc1ccncc1`, the cytotoxicity call in the test on HSkMC and with HepG2 was “inactive” each time. Besides, in the test with S. aureus RN4220, the growth inhibition call is “inactive”.
Turning to `O=C(Nc1ccc2c(c1)[C@H]1C[C@@H](CC(=O)N3CCc4ccccc4C3)O[C@@H](CO)[C@H]1O2)C1CCOCC1`, the cytotoxicity call in the test on HSkMC and with HepG2 was “inactive” in each case. Also, the growth inhibition call with S. aureus RN4220 was “inactive”.
For `Cc1noc(C)c1NC(=O)Nc1ccc2c(c1)C(=O)N([C@H](C)CO)C[C@@H](C)[C@H](CN(C)CC1CCCCC1)OCCCC[C@@H](C)O2`, the cytotoxicity call in the test with HSkMC and with HepG2 was “inactive” each time. Also, the growth inhibition call with S. aureus RN4220 was “inactive”.
Turning to `O=C(C[C@@H]1C=C[C@@H](NC(=O)CN2CCOCC2)[C@H](CO)O1)NCCc1ccccc1`, the cytotoxicity call with HSkMC and in the test with HepG2 was “inactive” in each case. Moreover, the growth inhibition call with S. aureus RN4220 was “inactive”.
As to `NC(=O)C(C(N)=O)[C@H]1CCS(=O)(=O)C1`, the cytotoxicity call in the test with HSkMC and in the test with HepG2 was “inactive” throughout. Moreover, in the test on S. aureus RN4220, the growth inhibition call is “inactive”.
With `CN(C)C(=O)c1cccc(-c2ccc3n(c2=O)C[C@H]2[C@H](CO)[C@@H](C(=O)NCC4CC4)N[C@@H]32)c1`, the cytotoxicity call in the test with HSkMC and in the test with HepG2 was “inactive” each time. Further, in the test with S. aureus RN4220, the growth inhibition call is “inactive”.
`CN1CCN(C(=O)C[C@@H]2CC[C@H]3[C@@H](COC[C@@H](O)CN3Cc3ccc4c(c3)OCO4)O2)CC1`: the cytotoxicity call in the test with HSkMC and in the test with HepG2 was “inactive” throughout. Moreover, the growth inhibition call with S. aureus RN4220 is “inactive”.
Turning to `C[C@H](CO)N1C[C@H](C)[C@H](CN(C)S(=O)(=O)c2ccc(Cl)cc2)Oc2ccc(NC(=O)CCCN(C)C)cc2C1=O`, the cytotoxicity call in the test on HSkMC (human skeletal muscle cells) and in the test with HepG2 was “inactive” throughout. Besides, the growth inhibition call in the test with S. aureus RN4220 was “inactive”.
